# According to the supplement of paper PMC10681739:
# ± gives the standard deviation of the averaged measurements. Over roughly 4,100 sequences, “arbitrary fluorescence units” has its median near 780; the highest 2% begin near 22,000. This is one part of the list.
# Target: T1, ETS1 (UniProt P14921)
# T1 sequence: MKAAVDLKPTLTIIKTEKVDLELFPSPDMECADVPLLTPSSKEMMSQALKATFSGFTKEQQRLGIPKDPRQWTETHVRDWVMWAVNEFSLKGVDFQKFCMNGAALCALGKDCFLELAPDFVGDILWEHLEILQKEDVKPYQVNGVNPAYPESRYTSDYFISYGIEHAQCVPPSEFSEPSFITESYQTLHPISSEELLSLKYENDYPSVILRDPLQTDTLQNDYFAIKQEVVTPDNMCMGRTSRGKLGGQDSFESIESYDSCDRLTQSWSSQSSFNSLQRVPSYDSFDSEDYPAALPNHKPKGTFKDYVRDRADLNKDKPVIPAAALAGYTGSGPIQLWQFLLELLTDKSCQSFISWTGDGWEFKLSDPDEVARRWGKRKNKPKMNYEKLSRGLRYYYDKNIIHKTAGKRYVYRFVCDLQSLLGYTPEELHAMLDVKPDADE
# Test: ETS1 binding intensity (PBM fluorescence), ETS1 alone (arbitrary fluorescence units); higher = stronger binding
# Settings: ETS1 concentration 1 nM; RUNX1 concentration 0 nM
# Outline: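 Double-stranded Agilent 4 × 180k arrays held 36-bp genomic probes whose RUNX1 partner site was mutated, and these were incubated with 1 nM full-length recombinant human ETS1 in the absence of RUNX1 under standard PBM protocols. Bound protein was labelled with anti-ETS1 antibody (Cell Signaling Technology 14069) plus an Alexa488-conjugated secondary and read on a GenePix 4400A, with four spots printed per sequence. Binding level is reported as raw spot fluorescence intensity summarised over replicate spots.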
row,Sequence,ETS1 binding intensity
1,CAGTGACAGGAAGTGGTTCAGCTGTTGTTTAGGGCT,8150
2,CATTTGATGGGGTTGATTACTTCCTGCTTTAATTTT,3170
3,GGACCTACAGCCGTGTGGGCAGCCTCAGGATGAGCT,329
4,CCTCAAGGGTAGGGGAAGTGCGCGGCGAGCGGCCTG,451
5,TTTCTGACTTCCTGTGTGCTTCAGAAACCCCAATGA,25100
6,TGGCATTCTCCTTCCTGTCTCCTAACGACAGCCCAC,6380
7,AACCCACCGGATGGAAGCTGCCACTCAGCCCCAGGA,2920
8,CAGTGGCTAAGGATCCGGTGTTGCAGTGATACATGA,1670 ± 76
9,GGGTGGGCGTTCAAAGCGCACGCGGAAGGGCGAAAG,474
10,GCACCAGAGGAAGCTGAGGAGGAGGTGCGCTGGCTG,428
11,GGGAAGAGGCGCTTGGGCTGCGGAAGGACGGGGCGC,483
12,GTCCTCTTTGGGGTTTCCATTTCCTTTGTGAAAGAG,1630
13,CCCCATCCCCCTCATAGGGACTTCCTCTTTATTTAC,2080
14,TCTACATATCACACATGTGAACTTCCGCCCCGCCAC,3020 ± 600
15,GCTTACACTTCCTCCCTGAACCCCTGCGATTTCACA,4590
16,CCCTGGGGCCCCACTTCCTTGCCCACGAGAAAGGAC,2130
17,TGCCCGAGGTTCGCGTCACACCCGGAAGCAGGGGCC,620
18,GGTTTGTAGTTTCCCCTTACTGTCTCCACTTCCTTC,1100
19,AAAACGCGGAAATACGGTGGCGGCGGCCCTCGGGCA,1430
20,GTATTTCCTTGTCTTTCCTTCTGCCGCCGTAGGCCT,3820
21,ATATAGAATCTTACGACAATCACTTCCTGAGTCTAT,1850
22,CGGGGCGCGATTCCCCCTGGGCTTCCTGAAGTAATA,403
23,ATATATCACCCCTTCCTTGCAAAACCCCAAGACCAA,537
24,CTTCAGGAAGGGCGAGGCCGGGCGCCGTGGCTCACG,357
25,CTGGGGAGGAAGCCTGAGGTGTGTAGTTTTGTTAAC,528

row,Sequence,ETS1 binding intensity
1,CTGTGAGGCGGAAGTGGCGGGCTCTGTGAGCGCAAG,4890
2,CGGCTGGCAGGAAGTGGCCACTTGAACCCCAGATGC,9080
3,TAAGCAGTGACCTTAAATTAATATAGGATGTCACTG,359
4,GTTAACAAAACTACACACCTCAGGCTTCCTCCCCAG,393
5,CCCTTCCCCACCCCAGTCCGCTTCCTGCCCCTCCCG,2270
6,CCAGACCCGGCGGAACTACCGTGCCCTCAAGGCAGC,477
7,AGGCGCCCAATCCGGTGCATGGTCTCTGGCGCATGC,539
8,CTGTGAGGTTGTCGTACTGGAAACTTCCTCCTAAAT,500
9,CTCTTAACTCGCTGTCCCGCCCCTTCCGGCCAGTGT,1270
10,GACCTGCCTTCCGGCCTCCGTCACATGACAGCACAG,7480
11,CATCAAGTATTTCCTCACGCAAGCAACCCCATCCAT,1070
12,GGGAGCGCCGTCGCAGCTCCCACTTCCGCCCTCTGG,3870
13,GTCCCCCGGAACCGTCTCCTCCCCCGTACGCGCCGC,515
14,CTCCCCAGCCCCAAACCCCTCCTTCCGGCTTTGCGC,1940
15,GCCGGCCCCAAAGCAGCTCCGCCCCTTCCTCTTCCA,331
16,CATGACATCCTCGCACAAGAAGGCGGGGGTGGGGGT,1030
17,GCGCGGCTCAGGAAGCGACGCGATTCAGGGAGCGAA,607
18,CCTGGGGTTGCCTCAGGCCTCAGGAGGAAGCTCACT,361
19,GCCAGGGCTGCAGCGGGAGAGGAAGCCGGGCGGCCG,378
20,GGCGGGACTTCCGGCGTCTCCCCTCGGCGGCTGCTT,19000
21,CTTCTTCTTGCGATTTCAATCACAGGAAACAGACGT,601
22,CGGCACCCTCCTTCCTCCCTGCCAAGCGCCTCCACC,827
23,TAACCCGGAGCGGAAGGATCCCGAAGCGTGTGCGTA,949
24,AGAAGTGCAGTGGAGGAGGGCCGGAACGGTGACTAT,393
25,GGGGAAATCGAGGTCTTAGCATCCGGCGCGCGGCGG,3180

row,Sequence,ETS1 binding intensity
1,CTCCCAACTTCCGCGACGCAGGGAGCGCCTACAAAG,5570
2,TAGGAGCGTCTACGGCGCGGGCGGAACCCGGGTTCG,338
3,GTAGGGCCGGACGGCAGGCTCCGGGATAGCGCCACG,416
4,GTAGGGAAATCCACTTACCCCTTCCTCATGTGTGCA,424
5,CCCTCTGAGACAGGATTTGCTTCCAACACAAGGCTA,531 ± 9.9
6,TGCGAGGTTGTCCCAGGCAGTCCCCGGAAAGCAAGG,424
7,CCCTCGCGCGGCCAGAGCGGCGCCGCGGAAGCGCAG,340
8,ACTGCCGTAAGGAAGCTGCCACCTCACGCAGTAGGG,387
9,TCGGGTTCCGCCAGCTTGCACCGCCCCGTAAGGTCG,541
10,GAATCTGATGCAAGCGCCGCCCCGGAAGTCGCGCCC,1500
11,TGCAATCAGGAAGCCTGCCCCTCTAGAACCCCAAAA,498
12,GGGAGTGGGCGATTTCCCCAGGGAAGTTTTATGGTA,467
13,GGTCTTATCTTGTAGTTCCCAAGGAAACAGGTCCCG,458 ± 4.7
14,CAAATTAGGCACAGGGTGGATAGGAAATGGCTAGGA,498
15,CATGTGACCCAGACACCCTACTTTACTCGGAAACAG,361
16,CGTACCAAAAACCTACATGGTCAGGAAGTGACTCAC,581
17,GCAGATCTGGTAAGCACCATCTTTCCGGCTCCCTCG,543
18,GTTTTAGAGCGGCCAGAGGGGCGGCTTCCGGTTTAG,5340
19,TGCGCTCTCATCCGGGTCCTGAGGGCGCTGGCGGAG,2150
20,CTCCCTAGCCCGAGGTGAGCGGGGGAAACGGCACTC,414
21,CAATGGAAAATCCGCCCCCGGAAAACACCAACTTCA,731
22,TTTATCCTTATTTCCTGGCTTCGCCTACAAGCACAG,5090
23,CATACAGGATGCTGGGGTATGTAAAACAAAGCACGG,2620
24,CCACCCAAAACTACAACCATTTCCCCCATCACTTTG,565
25,TGCTCCACTCCGCTACGCTGCTGTGATTTCCTGTTT,929

row,Sequence,ETS1 binding intensity
1,GCCAAGAAAGCACCCAATAGGAGGCCGGAAGCATCG,793
2,CTCCGGCGGAAGTTGTCTCTTCGCCGCCGCTGCAGC,4990
3,CGGGTACCGTAAGGGACAAACGGCGAGGCGGAACTC,369
4,TGGGACGAGTGGGCGGAAACAGCCGCTGGTCTCTCT,1140
5,CGGGCTGGGAGGAAGTGATGGCTGACAACAGAGGAG,1690
6,ATGTTATTGTAGCTTCAAATTTCCTCTTGGCAAGCC,769
7,CTCGGCCAGGAAGCACTGAGCCACTTCGGCATCGCA,591
8,CGGGGTTTCCTGGTGGCTGCGAGCGCTGGGGACGGC,2660
9,AGCTTTTCGGGCTGTATCAGTCTCAGCAGGAAGAAG,361
10,CCGTGTGCTGTGAGTTTTGGGGACAGGAAGCAAGCT,846
11,TAAGGATGTGTGGCTTCCAGATCAAAAATCGCAAAA,470
12,GTCGCCGGGATCACTGCAAACGCTTCCTGCTTGCGC,1600
13,TGAATCATCCTGAGTTACCCGTTCTGTAATCGCCCC,582
14,CGCCTGCCCCACTTCCGCCCGGACCCTCAGCCCCTA,15500
15,CGACTTCCGTCCCTGGGTGGGATCGAACTACCAACC,18900
16,GGTGAAGGCTGAGGGGCGTCGCCGGAAGTGTCGTAA,2240
17,TGGAGCTGTTACGGGGTCCGCGGGGAAGTCTTGGCA,364
18,CTGTGTCCACGGTGCAAGGGGTTCCGGCGAGGCCAA,387
19,GTCGTCAGCGTCTTCCTGTCAGCGGACGGCAGAGCC,5370
20,GTTCTCCTTCCTGTGCCGAGTGTAGTTTGCTATCAA,5480
21,CGAGGACGCGATTCCCAGAACGGAAGCAACCTGGGG,774
22,GAGGTTCATGGGGTCCCTTTTCCGCTGTTCCCGGAG,857
23,TATTCAGCAGGAAAGGAGAGAGTCTGTGATATCTGC,444
24,TCCTGTAGTTTCCGGCTGAAGTGCTAAGGTTTTTGA,8180
25,CCCATCGCCGAAGCTCAAGTTTGTTTCCTTTTCATC,572

row,Sequence,ETS1 binding intensity
1,AGAAAGAATCCGCGAGGCAAACGGAAGTATATAGGA,1600
2,CTCGCAACGACAGCAGCCGCGCAGGAAGTTCCTGTA,881
3,CAAGCCACCTAACAGTGCACAGACAGCATCCTGAGC,421
4,TTGTGGACGCGGATTTGGGGGCGGGTATCCGGGCCT,564
5,GGAGGCTGAGGGGGCCGCACTCAGCCGGAATCCCTG,438
6,GACTCTTGGGGTTGCACCGCGCTTCCTGCCAGCTTG,1410
7,TAGAAAAGGAAGCAGGGTAGGTGTCGTATCTGGGTC,565
8,CTGGGGTAGGGCAGCTCCTCAGAAGCCGGAAATCTG,594
9,CCTCTGTGATTTTTAAGAGTAACACACAGGAAGGAG,452
10,GGTCTCTGCTTCCGGTCCTTGGGGTAGCACCTCTGT,32000
11,ACGAGAGTCTAGAGGAAACCAACCCTCAACTCACTG,449
12,GGACTCTGGCAGGAAGCTGTTTGTAGTTGTCACACC,1270
13,GGCTTTTCCGGGATCCCTTTCGCCTCATCACTGCAG,5710
14,CTTTGCAGGAAGCTGGGGTTCACCTACAGCCTTGTT,1000
15,TCCCCCGTTTGGTGTTCAGGCCCTCTTCCTGGAGCT,350
16,CTCCCGTTTCCGCCAGCCACCTGAACTACGGCCCAG,6570
17,AGCAAAAACGCCCACCACCGGAAAGACGCCTGAAGA,1530
18,CACTTCCTCTGTGACTGCAGGTTTCCAACTACAAGC,18700
19,GCACGCGCCGTAGGCCGACCCCCGGAACCCTCCGGG,406
20,CAGTTCCTTCCTCCGGTTCCTGCACTTGGCCCCAGC,2650
21,CTTCACGGTGACGGGGAACTACATTTCCCAGAAGGC,365
22,TTGAATTTATCACGCGGAAAGCAGCTTTTCCTGTGC,480
23,CCAGCGTTTCCGCACCCTCTCCGATTAGAGGTCCCA,4100
24,AATCTGAAACAGGAAATAAGTCTGTCGTTGTGTGTT,4460
25,TAGCAGGAAGCCGATTCGCCCTATATGCAAGCACTT,763
